About 14,000 (4.5%) of roughly 310,000 compounds showed an effect of 50% or more. Effects have a minus sign here. Some of the results follow.
target: human ether-à-go-go-related gene (hERG) potassium channel (human, UniProt Q12809); test: primary screen, population patch clamp on CHO cells stably expressing hERG
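Note: peak tail current of the secondary pulse compared with the same well before compound.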

Chain of human ether-à-go-go-related gene (hERG) potassium channel (Q12809 whole entry, looked up): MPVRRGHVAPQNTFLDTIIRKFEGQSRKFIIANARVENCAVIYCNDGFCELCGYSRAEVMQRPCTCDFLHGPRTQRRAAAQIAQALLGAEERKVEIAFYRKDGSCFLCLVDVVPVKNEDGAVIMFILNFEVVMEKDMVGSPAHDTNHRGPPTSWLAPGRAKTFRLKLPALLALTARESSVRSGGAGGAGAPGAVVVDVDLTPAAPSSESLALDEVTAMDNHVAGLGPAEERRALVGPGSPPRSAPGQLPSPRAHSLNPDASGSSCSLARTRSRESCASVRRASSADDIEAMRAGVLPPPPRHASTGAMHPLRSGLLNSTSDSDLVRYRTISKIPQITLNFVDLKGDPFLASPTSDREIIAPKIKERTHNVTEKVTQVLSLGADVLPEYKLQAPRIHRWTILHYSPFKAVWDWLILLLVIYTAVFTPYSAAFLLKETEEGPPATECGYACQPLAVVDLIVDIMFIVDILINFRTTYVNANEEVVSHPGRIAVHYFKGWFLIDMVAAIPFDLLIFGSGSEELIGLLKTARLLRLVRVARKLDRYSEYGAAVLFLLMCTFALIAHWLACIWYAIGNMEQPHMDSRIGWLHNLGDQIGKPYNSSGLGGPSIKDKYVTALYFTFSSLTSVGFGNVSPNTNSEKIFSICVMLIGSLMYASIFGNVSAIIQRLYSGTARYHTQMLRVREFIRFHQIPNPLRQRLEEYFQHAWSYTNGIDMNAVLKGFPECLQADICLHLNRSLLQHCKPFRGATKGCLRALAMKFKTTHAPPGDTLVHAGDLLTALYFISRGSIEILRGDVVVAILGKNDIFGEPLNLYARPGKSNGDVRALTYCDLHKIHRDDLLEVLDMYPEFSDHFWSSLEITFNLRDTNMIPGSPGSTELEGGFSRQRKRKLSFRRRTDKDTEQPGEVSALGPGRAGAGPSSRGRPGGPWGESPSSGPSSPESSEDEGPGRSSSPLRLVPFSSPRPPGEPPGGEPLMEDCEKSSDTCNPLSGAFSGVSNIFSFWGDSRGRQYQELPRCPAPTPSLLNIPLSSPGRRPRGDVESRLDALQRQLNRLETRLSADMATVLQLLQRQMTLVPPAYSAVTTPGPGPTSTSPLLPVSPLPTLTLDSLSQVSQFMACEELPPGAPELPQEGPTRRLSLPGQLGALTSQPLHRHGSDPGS

| Compound | hERG current change (%, negative = inhibition) at 10uM [%] |
| --- | --- |
| Cc1nn(C)c(C)c1/C=C1/SC(=S)NC1=O | 15.9 |
| CCOC(=O)c1oc2ccccc2c1CSc1nnnn1-c1ccc(OC)cc1 | 4.85 |
| O=C1c2[nH]nc(-c3ccccc3O)c2C(c2ccc(F)cc2)N1Cc1ccco1 (centres unmarked) | -9.23 |
| CCOCCCNC(=O)CCNS(=O)(=O)c1ccc(C)cc1 | 3.47 |
| COc1cc(N=c2ssnc2Cl)c(OC)cc1Cl | 9.01 |
| C=CCc1ccc(OCCCOc2ccc(C(=O)O)cc2)c(OC)c1 | -1.14 |
| CCN(CC)CCOC(=O)c1ccc(N)cc1.Cl | 2.06 |
| CC1(C)CC(NC(=O)C2CCN(S(=O)(=O)c3cccc(C(F)(F)F)c3)CC2)CC(C)(C)N1 | -0.514 |
| CN(c1ccc(C(=O)Nc2ccccc2C(F)(F)F)cc1)S(C)(=O)=O | -2.06 |
| CCC(C)NCC(=O)Nc1ccc([N+](=O)[O-])cc1C(=O)Nc1ccccc1F (centres unmarked) | -34.7 |
| CN(c1ccc(OCC(=O)Nc2nc3ccccc3s2)cc1)S(=O)(=O)c1ccccc1 | 5.14 |
| CCCCC(=O)Nc1ccc(N2CCN(c3ccc(F)cc3)CC2)cc1 | 23.6 |
| Cn1c(CNc2ccc(O)cc2)nc2ccccc21 | 5.16 |
| O=C(CSc1oc(-c2ccc(F)cc2)nc1S(=O)(=O)c1ccccc1)NCC1CCCO1 (centres unmarked) | -14.4 |
| Cn1c(-c2ccc(N)cc2)nc2ccccc21 | -3.42 |
| CC(C)C1=NN(C(=O)c2ccccc2)C(O)(C(C)(C)C)C1 (centres unmarked) | 4.49 |
| COc1cccc(C(=O)Oc2ccc3c(C)cc(=O)oc3c2C(C)=O)c1 | 0.342 |
| CCOC(=O)C1CCCn2c1nc1sc3c(c1c2=O)CCCC3 (centres unmarked) | -21.1 |
| O=C(Cc1ccccc1)NCC1COc2ccccc2O1 (centres unmarked) | 2.3 |
| Cc1cc(NC(=O)COC(=O)c2oc3c(ccc4ccccc43)c2C)no1 | 20.6 |

| Compound | hERG current change (%, negative = inhibition) at 10uM [%] |
| --- | --- |
| Clc1ccc(-c2nnc(-c3ccccc3)nc2N2CCSCC2)cc1 | -2.38 |
| CC(C)Nc1nc(Cl)nc(NC2CCCCC2)n1 | 16.6 |
| CNC(=O)c1cc(S(=O)(=O)Nc2ccc(C)cc2C)ccc1C | 10.6 |
| CCOc1ccc(C(=O)COC(=O)c2c(-c3ccccc3)noc2C)cc1 | -0.244 |
| COC(=O)C(O)(c1cn(C)c2ccccc12)C(F)(F)F (centres unmarked) | 15.1 |
| COc1cccc(/C=N/NC(=O)CC2C(=O)NN=C2C)c1OC (centres unmarked) | 2.5 |
| c1ccc2[nH]c(CCCCc3nc4ccccc4[nH]3)nc2c1 | -36.5 |
| Cc1ccccc1C(=O)NNS(=O)(=O)c1cccc([N+](=O)[O-])c1 | 22.7 |
| COc1ccc(-c2cc(=O)c3cc(F)ccc3[nH]2)cc1 | 11.4 |
| CC(C)c1ccc(NC(=S)N(C)CCc2ccccn2)cc1 | -8.91 |
| Cc1occc1C(=O)N1CCC2(CC1)OCCO2 | 1.9 |
| COn1c(=S)[nH]c2ccccc2c1=O | 6.51 |
| CCNC(=O)CC1C(=O)N(c2ccc(OC)cc2)C(=O)N1Cc1ccc(OC)cc1 (centres unmarked) | -9.1 |
| Cc1nc(N2CCN(C(=O)c3ccco3)CC2)c2c3c(sc2n1)CCCC3 | -64.1 |
| CCN(CC)C(=O)C1=C(C)NC(=O)NC1c1c(F)cccc1Cl (centres unmarked) | -2.87 |
| Cc1onc(-c2ccccc2)c1NC(=O)N(CCC(=O)O)Cc1ccccc1 | 2.16 |
| CCOc1ccccc1NCc1cc(=O)oc2cc(C)ccc12 | 19.4 |
| COCCn1nnnc1C(c1cc2ccc(C)cc2[nH]c1=O)N(Cc1ccco1)Cc1cccs1 (centres unmarked) | -26.8 |
| CCOc1ccc(-c2csc(/C(C#N)=C\c3ccc(O)c([N+](=O)[O-])c3)n2)cc1 | 17.5 |
| O=C(NC(Cc1c[nH]c2ccccc12)C(=O)NCCCN1CCOCC1)c1cccs1 (centres unmarked) | -21.1 |

| Compound | hERG current change (%, negative = inhibition) at 10uM [%] |
| --- | --- |
| CC1(C)SCC(C(=O)O)NC1=O (centres unmarked) | 23.9 |
| CC1CCCCN1S(=O)(=O)c1ccc2c(c1)CCN2C(=O)C1CC1 (centres unmarked) | 5.91 |
| COC(=O)N/N=C/c1ccc(/C=N/NC(=O)OC)cc1 | 15.5 |
| COc1ccc(C(=O)c2sc(Nc3ccccc3F)nc2N)cc1 | 3.23 |
| Cc1cccc(-n2ncc3c(NC4CCCCC4)ncnc32)c1 | -5.1 |
| Cc1ccc(C2NC(c3ccc(C)cc3)C(C)C(=NO)C2C)cc1 (centres unmarked) | -1.33 |
| CC(C)(C)C(=O)N1CCC(O)(CS(=O)(=O)Cc2ccc(Cl)cc2)CC1 | -3.46 |
| CCOC(=O)c1c(NC(=O)/C=C/c2ccc3c(c2)OCO3)sc(C)c1CC | 18.6 |
| NNC(=O)c1sccc1OCc1ccc(Cl)cc1Cl | -18.5 |
| CSc1ccc(CNc2cccc3ccccc23)cc1 | 2.23 |
| COc1ccc(C)cc1S(=O)(=O)n1ccnc1C | 13.1 |
| CC(=O)n1nc(-c2ccccc2)nc1NCc1cccs1 | 8.35 |
| Cc1nn(CC(=O)Nc2ccc(Cl)c(S(=O)(=O)N(C)C)c2)c(C)c1[N+](=O)[O-] | -61.3 |
| COc1ccc(C(=O)Nc2c(C(C)(C)C)nn(C)c2C(C)(C)C)cc1 | 7.87 |
| Cc1ccc(OCC(=O)NNC(=O)Cc2ccc(S(=O)(=O)N3CCOCC3)s2)cc1 | 2.78 |
| CCOc1ccccc1/C=c1\sc2nc(-c3ccco3)nn2c1=O | 15.9 |
| COc1ccc(C2(CNC(=O)c3ccc(OCC(C)C)cc3)CCOCC2)cc1 | -18.6 |
| Cc1ccc(N(CC(=O)NCc2ccc(F)cc2)C(=O)c2ccco2)cc1C | -10.8 |
| CN(C)CCNC(=O)CN1C(=O)CSc2ccc(S(=O)(=O)N3CCCCC3)cc21 | 12.5 |

From publication PMC4336329 (PLoS ONE, 2015)
